# Source: the supplement of paper PMC4604168 (melanoma cell lines)
# The other results are listed elsewhere or left out. Most values come without repeats; read them as rough.
# Test system: C32
# Assay: cell count relative to DMSO control; melanoma cells; higher = more viable cells
# Conditions: library dose: low library concentration; 72 h
# 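Note: cell number obtained by counting DAPI-stained nuclei in high-throughput microscope images with image analysis software, screen run in 1,536-well plates.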
row,Structure (SMILES),cell count [%]
1,"O=C(/C=C/c1cccnc1)NCCCCC1CCN(C(=O)c2ccccc2)CC1 + COc1ccc(COc2ccc(Cc3cnc(N)nc3N)cc2OC)cc1 [GW2580] (first compound 0.01 µM, partner dose 1 µM)",96.5
2,"Cc1ccc(Nc2nccc(N(C)c3ccc4c(C)n(C)nc4c3)n2)cc1S(N)(=O)=O [Pazopanib] + c1cc(-c2cnn3cc(-c4ccc(OCCN5CCCCC5)cc4)cnc23)ccn1 [Dorsomorphin] (first compound 0.4 µM, partner dose 0.4 µM)",97.6
3,"O=C(/C=C/c1cccnc1)NCCCCC1CCN(C(=O)c2ccccc2)CC1 + CCc1ccc(CCOc2ccc(CC3SC(=O)NC3=O)cc2)nc1 [pioglitazone] (first compound 0.01 µM, partner dose 2 µM)",109
4,"CC1(C)CCC(c2ccc(Cl)cc2)=C(CN2CCN(c3ccc(C(=O)NS(=O)(=O)c4ccc(N[C@H](CCN5CCOCC5)CSc5ccccc5)c(S(=O)(=O)C(F)(F)F)c4)cc3)CC2)C1 + Cc1cc(N2CCOCC2)cc2[nH]c(-c3c(NC[C@@H](O)c4cccc(Cl)c4)cc[nH]c3=O)nc12 [BMS536924] (first compound 0.4 µM, partner dose 0.2 µM)",59
